# Measured values taken from the supplement of paper PMC8728848.
# Some of the results follow.
# Legend:
# Experiment in all cases: glycan array binding signal (z-score within array); higher = stronger binding
# Settings in all cases: glycan notation: IUPAC condensed, linker removed
# [1] = molecular target: GlcNAc(b1-2)Gal(b1-3)GalNAc
# Procedure, shortened: (§1)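 Glycan array data came from 3228 arrays in the Consortium for Functional Glycomics database, and only arrays with an available protein sequence were kept. Glycan names were put into IUPAC-condensed notation, and columns mapping to the same glycan were averaged. The binding signal is a within-array Z-score, averaged across arrays of one protein sequence run at different concentrations or buffers and across linkers. A negative Z-score can be read as non-binding.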
# [2] = molecular target: GlcNAc(b1-2)Man(a1-3)[GlcNAc(b1-2)Man(a1-6)]Man(b1-4)GlcNAc(b1-4)GlcNAc
# Procedure, shortened: as §1
# [3] = molecular target: GlcNAc(b1-2)Man(a1-3)[GlcNAc(b1-2)Man(a1-6)]Man(b1-4)GlcNAc(b1-4)[Fuc(a1-6)]GlcNAc
# Procedure, shortened: as §1
# [4] = molecular target: GlcNAc(b1-2)Man(a1-3)[GlcNAc(b1-4)][GlcNAc(b1-2)Man(a1-6)]Man(b1-4)GlcNAc(b1-4)GlcNAc
# Procedure, shortened: as §1
# [5] = molecular target: GlcNAc(b1-2)Man(a1-3)[GlcNAc(b1-4)][GlcNAc(b1-2)Man(a1-6)]Man(b1-4)GlcNAc(b1-4)[Fuc(a1-6)]GlcNAc
# Procedure, shortened: as §1
# [6] = molecular target: GlcNAc(b1-2)[GlcNAc(b1-4)]Man(a1-3)[GlcNAc(b1-2)Man(a1-6)]Man(b1-4)GlcNAc(b1-4)GlcNAc
# Procedure, shortened: as §1
# [7] = molecular target: GlcNAc(b1-2)[GlcNAc(b1-4)]Man(a1-3)[GlcNAc(b1-4)][GlcNAc(b1-2)Man(a1-6)]Man(b1-4)GlcNAc(b1-4)GlcNAc
# Procedure, shortened: as §1
# [8] = molecular target: GlcNAc(b1-2)[GlcNAc(b1-4)]Man(a1-3)[GlcNAc(b1-4)][GlcNAc(b1-2)[GlcNAc(b1-6)]Man(a1-6)]Man(b1-4)GlcNAc(b1-4)GlcNAc
# Procedure, shortened: as §1
# [9] = molecular target: GlcNAc(b1-2)[GlcNAc(b1-4)]Man(a1-3)[GlcNAc(b1-4)][GlcNAc(b1-2)[GlcNAc(b1-6)]Man(a1-6)]Man(b1-4)GlcNAc(b1-4)[Fuc(a1-6)]GlcNAc
# Procedure, shortened: as §1
# [10] = molecular target: GlcNAc(b1-2)[GlcNAc(b1-6)]Man(a1-6)[GlcNAc(b1-2)Man(a1-3)]Man(b1-4)GlcNAc(b1-4)GlcNAc
# Procedure, shortened: as §1
# [11] = molecular target: GlcNAc(b1-2)[GlcNAc(b1-6)]Man(a1-6)[GlcNAc(b1-2)Man(a1-3)]Man(b1-4)GlcNAc(b1-4)[Fuc(a1-6)]GlcNAc
# Procedure, shortened: as §1
# [12] = molecular target: GlcNAc(b1-2)[GlcNAc(b1-6)]Man(a1-6)[GlcNAc(b1-4)][GlcNAc(b1-2)Man(a1-3)]Man(b1-4)GlcNAc(b1-4)GlcNAc
# Procedure, shortened: as §1
# [13] = molecular target: GlcNAc(b1-3)Fuc
# Procedure, shortened: as §1
# [14] = molecular target: GlcNAc(b1-3)Gal
# Procedure, shortened: as §1
# [15] = molecular target: GlcNAc(b1-3)Gal(b1-3)GalNAc
# Procedure, shortened: as §1
# [16] = molecular target: GlcNAc(b1-3)Gal(b1-4)Glc
# Procedure, shortened: as §1
# [17] = molecular target: GlcNAc(b1-3)Gal(b1-4)GlcNAc
# Procedure, shortened: as §1
# [18] = molecular target: GlcNAc(b1-3)Gal(b1-4)GlcNAc(b1-2)Man(a1-3)[GlcNAc(b1-3)Gal(b1-4)GlcNAc(b1-2)Man(a1-6)]Man(b1-4)GlcNAc(b1-4)GlcNAc
# Procedure, shortened: as §1
# [19] = molecular target: GlcNAc(b1-3)Gal(b1-4)GlcNAc(b1-2)Man(a1-3)[GlcNAc(b1-3)Gal(b1-4)GlcNAc(b1-2)Man(a1-6)]Man(b1-4)GlcNAc(b1-4)[Fuc(a1-6)]GlcNAc
# Procedure, shortened: as §1
# [20] = molecular target: GlcNAc(b1-3)Gal(b1-4)GlcNAc(b1-2)[GlcNAc(b1-3)Gal(b1-4)GlcNAc(b1-6)]Man(a1-6)[GlcNAc(b1-3)Gal(b1-4)GlcNAc(b1-2)Man(a1-3)]Man(b1-4)GlcNAc(b1-4)GlcNAc
# Procedure, shortened: as §1
# [21] = molecular target: GlcNAc(b1-3)Gal(b1-4)GlcNAc(b1-3)Gal(b1-4)GlcNAc
# Procedure, shortened: as §1
# [22] = molecular target: GlcNAc(b1-3)Gal(b1-4)GlcNAc(b1-3)Gal(b1-4)GlcNAc(b1-2)Man(a1-3)[GlcNAc(b1-3)Gal(b1-4)GlcNAc(b1-3)Gal(b1-4)GlcNAc(b1-2)Man(a1-6)]Man(b1-4)GlcNAc(b1-4)GlcNAc
# Procedure, shortened: as §1
# [23] = molecular target: GlcNAc(b1-3)Gal(b1-4)GlcNAc(b1-3)Gal(b1-4)GlcNAc(b1-2)Man(a1-3)[GlcNAc(b1-3)Gal(b1-4)GlcNAc(b1-3)Gal(b1-4)GlcNAc(b1-2)Man(a1-6)]Man(b1-4)GlcNAc(b1-4)[Fuc(a1-6)]GlcNAc
# Procedure, shortened: as §1
# [24] = molecular target: GlcNAc(b1-3)Gal(b1-4)GlcNAc(b1-3)Gal(b1-4)GlcNAc(b1-2)[GlcNAc(b1-3)Gal(b1-4)GlcNAc(b1-3)Gal(b1-4)GlcNAc(b1-6)]Man(a1-6)[GlcNAc(b1-3)Gal(b1-4)GlcNAc(b1-3)Gal(b1-4)GlcNAc(b1-2)Man(a1-3)]Man(b1-4)GlcNAc(b1-4)[Fuc(a1-6)]GlcNAc
# Procedure, shortened: as §1
# [25] = molecular target: GlcNAc(b1-3)Gal(b1-4)GlcNAc(b1-3)Gal(b1-4)GlcNAc(b1-3)Gal(b1-4)GlcNAc(b1-2)Man(a1-3)[GlcNAc(b1-3)Gal(b1-4)GlcNAc(b1-3)Gal(b1-4)GlcNAc(b1-3)Gal(b1-4)GlcNAc(b1-2)Man(a1-6)]Man(b1-4)GlcNAc(b1-4)GlcNAc
# Procedure, shortened: as §1
# [26] = molecular target: GlcNAc(b1-3)Gal(b1-4)GlcNAc(b1-3)Gal(b1-4)GlcNAc(b1-3)Gal(b1-4)GlcNAc(b1-2)Man(a1-3)[GlcNAc(b1-3)Gal(b1-4)GlcNAc(b1-3)Gal(b1-4)GlcNAc(b1-3)Gal(b1-4)GlcNAc(b1-2)Man(a1-6)]Man(b1-4)GlcNAc(b1-4)[Fuc(a1-6)]GlcNAc
# Procedure, shortened: as §1
# [27] = molecular target: GlcNAc(b1-3)Gal(b1-4)GlcNAc(b1-3)Gal(b1-4)GlcNAc(b1-3)Gal(b1-4)GlcNAc(b1-2)[GlcNAc(b1-3)Gal(b1-4)GlcNAc(b1-3)Gal(b1-4)GlcNAc(b1-3)Gal(b1-4)GlcNAc(b1-6)]Man(a1-6)[GlcNAc(b1-3)Gal(b1-4)GlcNAc(b1-3)Gal(b1-4)GlcNAc(b1-3)Gal(b1-4)GlcNAc(b1-2)Man(a1-3)]Man(b1-4)GlcNAc(b1-4)[Fuc(a1-6)]GlcNAc
# Procedure, shortened: as §1
# [28] = molecular target: GlcNAc(b1-3)Gal(b1-4)GlcNAc(b1-3)Gal(b1-4)GlcNAc(b1-3)Gal(b1-4)GlcNAc(b1-3)Gal(b1-4)GlcNAc(b1-2)Man(a1-3)[GlcNAc(b1-3)Gal(b1-4)GlcNAc(b1-3)Gal(b1-4)GlcNAc(b1-3)Gal(b1-4)GlcNAc(b1-3)Gal(b1-4)GlcNAc(b1-2)Man(a1-6)]Man(b1-4)GlcNAc(b1-4)GlcNAc
# Procedure, shortened: as §1
# [29] = molecular target: GlcNAc(b1-3)Gal(b1-4)GlcNAc(b1-3)Gal(b1-4)GlcNAc(b1-3)Gal(b1-4)GlcNAc(b1-3)Gal(b1-4)GlcNAc(b1-2)Man(a1-3)[GlcNAc(b1-3)Gal(b1-4)GlcNAc(b1-3)Gal(b1-4)GlcNAc(b1-3)Gal(b1-4)GlcNAc(b1-3)Gal(b1-4)GlcNAc(b1-2)Man(a1-6)]Man(b1-4)GlcNAc(b1-4)[Fuc(a1-6)]GlcNAc
# Procedure, shortened: as §1
# [30] = molecular target: GlcNAc(b1-3)Gal(b1-4)GlcNAc(b1-3)Gal(b1-4)GlcNAc(b1-3)Gal(b1-4)GlcNAc(b1-3)Gal(b1-4)GlcNAc(b1-2)[GlcNAc(b1-3)Gal(b1-4)GlcNAc(b1-3)Gal(b1-4)GlcNAc(b1-3)Gal(b1-4)GlcNAc(b1-3)Gal(b1-4)GlcNAc(b1-6)]Man(a1-6)[GlcNAc(b1-3)Gal(b1-4)GlcNAc(b1-3)Gal(b1-4)GlcNAc(b1-3)Gal(b1-4)GlcNAc(b1-3)Gal(b1-4)GlcNAc(b1-2)Man(a1-3)]Man(b1-4)GlcNAc(b1-4)[Fuc(a1-6)]GlcNAc
# Procedure, shortened: as §1
# [31] = molecular target: GlcNAc(b1-3)Gal(b1-4)GlcNAc(b1-3)Gal(b1-4)GlcNAc(b1-3)GalNAc
# Procedure, shortened: as §1
# [32] = molecular target: GlcNAc(b1-3)Gal(b1-4)GlcNAc(b1-3)GalNAc
# Procedure, shortened: as §1
# [33] = molecular target: GlcNAc(b1-3)Gal(b1-4)GlcNAc(b1-3)[GlcNAc(b1-3)Gal(b1-4)GlcNAc(b1-3)]GalNAc
# Procedure, shortened: as §1
# [34] = molecular target: GlcNAc(b1-3)Gal(b1-4)GlcNAc(b1-6)[Gal(b1-3)]GalNAc
# Procedure, shortened: as §1
# [35] = molecular target: GlcNAc(b1-3)Gal(b1-4)GlcNAc(b1-6)[GlcNAc(b1-3)Gal(b1-3)]GalNAc
# Procedure, shortened: as §1
# [36] = molecular target: GlcNAc(b1-3)Gal(b1-4)GlcNAc(b1-6)[GlcNAc(b1-3)]Gal(b1-4)GlcNAc
# Procedure, shortened: as §1
# [37] = molecular target: GlcNAc(b1-3)GalNAc
# Procedure, shortened: as §1
# [38] = molecular target: GlcNAc(b1-3)Man
# Procedure, shortened: as §1
# [39] = molecular target: GlcNAc(b1-3)[GlcNAc(b1-4)][GlcNAc(b1-6)]GlcNAc
# Procedure, shortened: as §1
# [40] = molecular target: GlcNAc(b1-3)[GlcNAc(b1-6)]Gal(b1-4)GlcNAc
# Procedure, shortened: as §1
# [41] = molecular target: GlcNAc(b1-3)[GlcNAc(b1-6)]GalNAc
# Procedure, shortened: as §1
# [42] = molecular target: GlcNAc(b1-4)Gal(b1-4)GlcNAc
# Procedure, shortened: as §1
# [43] = molecular target: GlcNAc(b1-4)GlcNAc
# Procedure, shortened: as §1
# [44] = molecular target: GlcNAc(b1-4)GlcNAc(b1-4)GlcNAc
# Procedure, shortened: as §1
# [45] = molecular target: GlcNAc(b1-4)GlcNAc(b1-4)GlcNAc(b1-4)GlcNAc(b1-4)GlcNAc
# Procedure, shortened: as §1
binder,measurement,setting,value
rCnSL-proB (Clitocybe nebularis) (protein) PTFSPIFALLAFLPFGTLASLLPQTQLVFRINPNLPGPNDVFVGYRGTNNVVGAIYERDGIKDTPMNNGADAELGPGSYITDDLFTAQIFASGSAGNNPGTTATVCKIYADGVQWRGAPKGYLPVLYFGNGQAAEQTRQTYLQGLDIPGTAIRFANLAKTPNQGPTAPRQMVVPSGGLQTLLKASCFPANHAALPQVLSYFNVRAALPPGWNIRTGPEFPNWTN,glycan array binding signal (z-score),[1],-0.369
same,glycan array binding signal (z-score),[2],-0.434
same,glycan array binding signal (z-score),[3],-0.079
same,glycan array binding signal (z-score),[4],-0.28
same,glycan array binding signal (z-score),[5],-0.568
same,glycan array binding signal (z-score),[6],-0.133
same,glycan array binding signal (z-score),[7],-0.318
same,glycan array binding signal (z-score),[8],-0.186
same,glycan array binding signal (z-score),[9],-0.318
same,glycan array binding signal (z-score),[10],-0.524
same,glycan array binding signal (z-score),[11],0.836
same,glycan array binding signal (z-score),[12],-0.147
same,glycan array binding signal (z-score),[13],-0.155
same,glycan array binding signal (z-score),[14],-0.313
same,glycan array binding signal (z-score),[15],-0.306
same,glycan array binding signal (z-score),[16],-0.16
same,glycan array binding signal (z-score),[17],-0.358
same,glycan array binding signal (z-score),[18],0.074
same,glycan array binding signal (z-score),[19],0.14
same,glycan array binding signal (z-score),[20],0.831
same,glycan array binding signal (z-score),[21],-0.63
same,glycan array binding signal (z-score),[22],3.21
same,glycan array binding signal (z-score),[23],1.04
same,glycan array binding signal (z-score),[24],0.727
same,glycan array binding signal (z-score),[25],0.44
same,glycan array binding signal (z-score),[26],0.576
same,glycan array binding signal (z-score),[27],0.626
same,glycan array binding signal (z-score),[28],0.063
same,glycan array binding signal (z-score),[29],-0.16
same,glycan array binding signal (z-score),[30],0.742
same,glycan array binding signal (z-score),[31],0.523
same,glycan array binding signal (z-score),[32],-0.28
same,glycan array binding signal (z-score),[33],-0.204
same,glycan array binding signal (z-score),[34],-0.684
same,glycan array binding signal (z-score),[35],0.204
same,glycan array binding signal (z-score),[36],-0.219
same,glycan array binding signal (z-score),[37],-0.757
same,glycan array binding signal (z-score),[38],-0.22
same,glycan array binding signal (z-score),[39],-0.62
same,glycan array binding signal (z-score),[40],-0.317
same,glycan array binding signal (z-score),[41],-0.668
same,glycan array binding signal (z-score),[42],0.458
same,glycan array binding signal (z-score),[43],-0.243
same,glycan array binding signal (z-score),[44],-1.44
same,glycan array binding signal (z-score),[45],-0.001
